Source: PubChem BioAssay AID588855 (National Center for Advancing Translational Sciences (NCATS), 2011)
Screen size: about 410,000 compounds; about 5,000 (1.2%) were called active. This list was built around the results that the source calls inconclusive (neither active nor inactive); the mix of calls is not that of the screen. The call rests on the fitted dose curve; in most records, active means well fitted inhibition curve with a large enough effect; inconclusive means small, poorly fitted or top-dose-only effect; inactive means no such curve, though single readings can be large or run the other way. Where the call is inconclusive, the potency comes from a doubtful curve fit.

Assay: qHTS for Inhibitors of TGF-b; further: nearly all actives have a fitted effect of over 65% in size
Settings: HepG2 CAGA-GFP TGF-b/SMAD3 reporter, GFP fluorescence, 18 h, TGF-beta stimulated, 500 pg/mL final; series mostly up to 46.1 µM; activity, negative = inhibition: at the top concentration
How it was run: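 Cell-based qHTS in HEPG2 carrying a CAGA-GFP Smad reporter; compounds added before 500 pg/mL final TGF-beta, 18 h incubation at 37 degrees C, GFP fluorescence quantified per cell by imaging cytometry.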
On the % scale 0 is the no-effect control and ±100 the full control effect; potency means the concentration at half of the fitted maximal effect; tags describe the fitted curve by direction and shape.

Q: Which Potency does the source give for `COc1cccc(NC(=S)N(CCCN2CCC(C)CC2)Cc2cccs2)c1` here?
A: inconclusive: 35.5 µM [inhibitor, single point]

Q: With `Cc1[nH]c(-c2ccc(F)cc2)cc1C(=O)N1CCN(c2ccc(Cl)cc2)CC1` as the compound, how does the Potency read?
A: inconclusive: 11.2 µM [inhibitor, partial curve, poor fit]

Q: With `CC(C)CCC1(CCNC(C)c2cccs2)CCOC(C)(C)C1` (stereo not given) as the compound, how does the Potency read?
A: inconclusive: 22.4 µM [inhibitor, single point]

Q: With `COc1c(OC(C)=O)ccc(/C=C/c2ccc3ccccc3n2)c1[N+](=O)[O-]` as the compound, how does the Potency read?
A: inconclusive: 14.1 µM [inhibitor, partial curve]

Q: For `Cn1c(N)c(C(C[N+](=O)[O-])c2c(F)cccc2Cl)c(=O)n(C)c1=O` (stereo not given), which “activity, negative = inhibition” value is on record?
A: inactive: 0%

Q: Which “activity, negative = inhibition” value does the source give for `O=C(NCCc1ccncc1)c1ccc2nc(Cc3cccc(Cl)c3)oc2c1` here?
A: inactive: -3.86%

Q: Which “activity, negative = inhibition” value does the source give for `O=C(c1cc2ccccc2oc1=O)N(Cc1ccccc1F)C1CCS(=O)(=O)C1` (stereo not given) here?
A: inactive: -5.06%

Q: With `Cc1cc(Cl)cc(C)c1OCCNCc1ccccc1` as the compound, how does the “activity, negative = inhibition” value read?
A: inactive: -18%

Q: With `CC(OC(=O)Cc1n[nH]c(=O)c2ccccc12)C(=O)Nc1ccc(F)cc1Cl` (stereo not given) as the compound, how does the Potency read?
A: inconclusive: 17.8 µM [inhibitor, single point]

Q: With `COc1cc(CNCc2ccc(OC)c3ccccc23)cc(OC)c1OC` as the compound, how does the Potency read?
A: inconclusive: 20 µM [inhibitor, single point]

Q: For `CC1(C)CSC(=NCc2ccccc2)N1C(=O)c1cccc([N+](=O)[O-])c1`, which Potency is on record?
A: inconclusive: 15.8 µM [inhibitor, single point]

Q: With `CC(=O)N/C(=C\c1ccccc1)C(=O)Nc1ccccc1C` as the compound, how does the “activity, negative = inhibition” value read?
A: inactive: -0.0485%

Q: Which Potency does the source give for `COCc1cc(CN2CCCC2)c(O)c2ncccc12` here?
A: inconclusive: 8.91 µM [inhibitor, partial curve, poor fit]

Q: For `CCO[C@H]1OC(C(=O)NC2CC2)=C[C@@H](c2c[nH]c3ccccc23)[C@@H]1CCCO`, which “activity, negative = inhibition” value is on record?
A: inactive: 4.11%

Q: Which “activity, negative = inhibition” value does the source give for `Cc1cccc(NS(=O)(=O)c2ccc3c(c2)oc(=O)n3C)c1C` here?
A: inactive: 30.5%

Q: For `O=[N+]([O-])c1ccc(S(=O)(=O)NCC(c2cccnc2)N2CCc3ccccc3C2)cc1` (stereo not given), which Potency is on record?
A: inconclusive: 35.5 µM [inhibitor, single point]

Q: For `COC(=O)c1ccc(COc2ccccc2/C=C/C(=O)c2ccc(OCC(=O)O)cc2)cc1`, which Potency is on record?
A: inconclusive: 10 µM [inhibitor, partial curve]

Q: For `CC(C)Cn1c(=O)c2ccccc2n2c(CCC(=O)NCc3ccccc3Cl)nnc12`, which Potency is on record?
A: inconclusive: 6.31 µM [inhibitor, single point]

Q: For `Cc1ccccc1CN1[C@H](C)[C@H](c2ccccc2)OCCS1(=O)=O`, which Potency is on record?
A: inconclusive: 7.08 µM [inhibitor, partial curve]

Q: For `O=C(CN1CCCCC1)Nc1c2c(nc3ccccc13)N(c1ccccc1)CC2`, which Potency is on record?
A: inconclusive: 15.8 µM [inhibitor, single point]

Q: Which Potency does the source give for `CC1CCCC(NC(=O)NC(=O)CCl)C1C` (stereo not given) here?
A: inconclusive: 35.5 µM [inhibitor, single point]

Q: With `Cc1ccc(NC(=O)c2cnc(SCC(=O)NCC3CCCO3)n(C)c2=O)cc1` (stereo not given) as the compound, how does the Potency read?
A: inconclusive: 0.631 µM [inhibitor, partial curve, poor fit]

Q: With `Cn1c(CSCc2ccccc2)nnc1SCC(=O)Nc1nccs1` as the compound, how does the Potency read?
A: inconclusive: 3.98 µM [inhibitor, full curve, poor fit]

Q: With `O=C(CN1C=NS(=O)(=O)c2ccccc21)Nc1ccc(F)cc1` as the compound, how does the Potency read?
A: inconclusive: 20 µM [inhibitor, partial curve, poor fit]

Q: With `COc1ccc(-c2cc3nc(C)c(CCC(=O)N4CCN(c5cccc(Cl)c5)CC4)c(C)n3n2)c(OC)c1` as the compound, how does the Potency read?
A: inconclusive: 6.31 µM [inhibitor, full curve, poor fit]

Q: With `CCOC(=O)C1=C[C@@H](CC)N(S(=O)(=O)c2ccc(C)cc2)[C@H]1c1cccc(Cl)c1` as the compound, how does the Potency read?
A: inconclusive: 0.355 µM [inhibitor, full curve, poor fit]

Q: With `CCOc1ccc(S(=O)(=O)N2CCC(C(=O)N3CCc4ccccc4C3)CC2)cc1` as the compound, how does the “activity, negative = inhibition” value read?
A: inactive: -12%

Q: With `CCc1nn(CC(=O)NCCc2ccc(OC)cc2OC)c(=O)c2cc3sccc3n12` as the compound, how does the Potency read?
A: inconclusive: 3.98 µM [inhibitor, partial curve, poor fit]

Q: Which Potency does the source give for `COc1cccc(CNC(=O)Cn2cc3c(n2)-c2c(oc(C(=O)N4CCCC4)c2C)CC3)c1OC` here?
A: inconclusive: 22.4 µM [inhibitor, single point]

Q: With `CC(C)(CNCc1ccccc1)NS(=O)(=O)c1ccc(Cl)cc1` as the compound, how does the Potency read?
A: inconclusive: 35.5 µM [inhibitor, single point]

Q: Which Potency does the source give for `COC(=O)C1=C(CSCc2ccccc2)NC(=O)NC1c1cc(C)ccc1C` (stereo not given) here?
A: inconclusive: 22.4 µM [inhibitor, single point]

Q: With `COc1ccc(C(C)NC(=O)c2ccc(Br)cc2)cc1OC` (stereo not given) as the compound, how does the “activity, negative = inhibition” value read?
A: inactive: -2.62%

Q: With `Cc1ccc(NC(=S)N2CCC(NC(=O)c3ccc(F)cc3)CC2)cc1C` as the compound, how does the Potency read?
A: inconclusive: 17.8 µM [inhibitor, single point]

Q: Which Potency does the source give for `O=C(Cn1c(=O)n(-c2ccc(F)cc2)c(=O)c2sc3ccccc3c21)N1CCCC1` here?
A: inconclusive: 35.5 µM [inhibitor, single point]

Q: For `CC(=O)N1N=C(c2c(-c3ccccc3)c3cc(Br)ccc3[nH]c2=O)CC1c1ccco1` (stereo not given), which Potency is on record?
A: inconclusive: 35.5 µM [inhibitor, single point]

Q: With `CCOC(=O)c1sc2ccccc2c1S(=O)(=O)Nc1c(C)cccc1C` as the compound, how does the Potency read?
A: inconclusive: 35.5 µM [inhibitor, partial curve, poor fit]

Q: For `CC(C)c1ccc2c(c1)C1Cc3ccccc3C1N2` (stereo not given), which Potency is on record?
A: inconclusive: 35.5 µM [inhibitor, single point]

Q: With `COc1ccc(S(=O)(=O)N(CCc2ccccc2)CC(=O)N/N=C/c2ccc3c(c2)OCO3)cc1` as the compound, how does the “activity, negative = inhibition” value read?
A: inactive: -12.4%

Q: For `O=C(Nc1ccc(N2CCOCC2)cc1)c1ccc(S(=O)(=O)NCc2ccco2)cc1`, which “activity, negative = inhibition” value is on record?
A: inactive: -0.927%

Q: With `CC(C)CNC(=O)c1ccccc1NC(=O)CCSc1ccccc1` as the compound, how does the “activity, negative = inhibition” value read?
A: inactive: 0.727%

Q: With `CCO[C@@H]1OC(C(=O)N2CCN(Cc3ccccc3)CC2)=C[C@H](c2cn(C(C)=O)c3ccccc23)[C@H]1CCCO` as the compound, how does the Potency read?
A: inconclusive: 35.5 µM [inhibitor, partial curve, poor fit]

Q: With `O=C(CSc1ccncc1)Nc1ccc2ccccc2c1` as the compound, how does the “activity, negative = inhibition” value read?
A: inactive: -1.41%

Q: With `COc1ccccc1NC(=O)N1CC(=O)Nc2sc3c(c2C1c1ccccc1)CCCC3` (stereo not given) as the compound, how does the “activity, negative = inhibition” value read?
A: inactive: 8.94%

Q: Which Potency does the source give for `CC(c1ccco1)N(C(=O)c1ccccc1NS(=O)(=O)c1cccc([N+](=O)[O-])c1)c1ccccn1` (stereo not given) here?
A: inconclusive: 35.5 µM [inhibitor, single point]

Q: For `CCCC(=O)NC(c1ccccc1)c1ccc2cccnc2c1O` (stereo not given), which Potency is on record?
A: inconclusive: 1.26 µM [inhibitor, full curve, poor fit]

Q: With `C=CCC(O)[C@H](Cc1cnc2ccccc2c1)[C@H](/C=C/CCCC)c1ccccc1` (stereo not given in full) as the compound, how does the Potency read?
A: inconclusive: 22.4 µM [inhibitor, single point]

Q: For `c1ccc(Sc2ncnc3ccccc23)cc1`, which Potency is on record?
A: active: 10 µM

Q: With `O=S(=O)(Nc1ccc(-c2csc(-c3ccccc3)n2)cc1)c1ccccc1` as the compound, how does the Potency read?
A: inconclusive: 20 µM [inhibitor, partial curve, poor fit]

Q: For `NC(=O)COC(=O)c1ccc(Cl)c(S(=O)(=O)N(Cc2ccccc2)c2ccc(Cl)cc2)c1`, which Potency is on record?
A: active: 15.8 µM

Q: For `COc1ccc(Cl)cc1NC(=O)CN(C)C(=O)c1cc2ccccc2cc1O`, which Potency is on record?
A: inconclusive: 15.8 µM [inhibitor, single point]

Q: Which Potency does the source give for `CCN(CC)S(=O)(=O)c1ccc(OCC2CCCCO2)c([N+](=O)[O-])c1` (stereo not given) here?
A: inconclusive: 10 µM [inhibitor, partial curve, poor fit]

Q: For `CCOc1ccc(-c2oc3ccccc3c(=O)c2O)cc1OCC`, which Potency is on record?
A: inconclusive: 10 µM [inhibitor, partial curve]

Q: For `CCCS(=O)(=O)c1ncc(Cl)c(C(=O)N(Cc2ccccc2)Cc2ccco2)n1`, which Potency is on record?
A: active: 8.91 µM

Q: For `CCOC(=O)c1c(NC(=O)c2nn(CC)cc2Br)c(C#N)cn1-c1ccccc1`, which Potency is on record?
A: inconclusive: 14.1 µM [inhibitor, partial curve]

Q: Which “activity, negative = inhibition” value does the source give for `CCCOc1cccc(OCCSc2nc(C)cc(=O)[nH]2)c1` here?
A: inactive: -5.01%

Q: With `CC(O)(c1ccc(F)c(F)c1)c1nc(-c2cc(F)cc(F)c2)cs1` (stereo not given) as the compound, how does the Potency read?
A: inconclusive: 35.5 µM [inhibitor, single point]

Q: Which Potency does the source give for `CCOc1ccc(NC(=O)N(CCN2CCOCC2)Cc2ccc3c(c2)CCCN3CC)cc1` here?
A: inconclusive: 0.562 µM [inhibitor, full curve, poor fit]

Q: With `C=CCn1c(SCC(=O)Nc2ccc(C(=O)O)cc2)nc2scc(-c3ccccc3)c2c1=O` as the compound, how does the Potency read?
A: inconclusive: 5.01 µM [inhibitor, full curve, poor fit]

Q: For `COc1ccc(S(=O)(=O)N2CCCCCC2)cc1C(=O)N(C)CC(=O)Nc1ccc(Cl)c(Cl)c1`, which “activity, negative = inhibition” value is on record?
A: inactive: -16.6%

Q: With `NC(=O)/C=C/C(=O)Nc1ccc(Cl)cc1` as the compound, how does the “activity, negative = inhibition” value read?
A: inactive: -24%

Q: Which Potency does the source give for `CC1CN(C(=O)c2cccc(COc3ccccc3Cl)c2)CC(C)O1` (stereo not given) here?
A: inconclusive: 35.5 µM [inhibitor, single point]

Q: Which Potency does the source give for `COc1ccc(C(CNC(=O)c2ccc(S(=O)(=O)N3CC(C)CC(C)C3)cc2)N(C)C)cc1` (stereo not given) here?
A: inconclusive: 35.5 µM [inhibitor, single point]

Q: Which Potency does the source give for `CC(C)CC(=O)N1CCN(Cc2ccc(C(F)(F)F)cc2)CC1` here?
A: inconclusive: 22.4 µM [inhibitor, single point]

Q: With `CC(Cc1ccccn1)NC(=O)c1ccc(OC2CCN(Cc3ccccn3)CC2)cc1` (stereo not given) as the compound, how does the Potency read?
A: inconclusive: 0.251 µM [inhibitor, full curve]

Q: With `CCN(CC)S(=O)(=O)c1ccc(NC(=O)c2ccc(CN3CCOCC3)cc2)cc1` as the compound, how does the Potency read?
A: inconclusive: 1 µM [inhibitor, full curve, poor fit]
